Results are given in words; binding and its absence hold for the method and conditions named. For some assays here: Binding seen in cells or lysates may run through a third protein. Some entries that bind do so weakly or less than the wild type. For some assays here: Tags and fused reporters may be left off the sequences shown.

Assay [1] addresses T1, AtSPO11-2 (Arabidopsis thaliana) (UniProt Q9M4A1).
T1 sequence: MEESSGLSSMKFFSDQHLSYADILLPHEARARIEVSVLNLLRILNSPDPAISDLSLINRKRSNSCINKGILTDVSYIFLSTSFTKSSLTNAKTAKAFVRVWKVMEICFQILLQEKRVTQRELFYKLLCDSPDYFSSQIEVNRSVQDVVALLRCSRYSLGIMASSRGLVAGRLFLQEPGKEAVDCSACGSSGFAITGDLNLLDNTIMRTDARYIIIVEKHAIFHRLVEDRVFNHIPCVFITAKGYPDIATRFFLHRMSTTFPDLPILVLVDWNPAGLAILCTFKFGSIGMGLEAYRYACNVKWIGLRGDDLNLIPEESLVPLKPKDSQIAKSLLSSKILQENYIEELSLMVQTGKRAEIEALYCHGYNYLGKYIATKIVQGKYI
Put plainly: two-hybrid; Gal4 vector system (Clontech), pGBKT7 and pGADT7, yeast AH109; growth on SD/-Trp-Leu-His-Ade plates, 3 to 7 days, 30 °C; cells serially diluted.

Assay [2] concerns the target T2, AtSPO11-1 (Arabidopsis thaliana) (UniProt Q9M4A2).
T2 sequence: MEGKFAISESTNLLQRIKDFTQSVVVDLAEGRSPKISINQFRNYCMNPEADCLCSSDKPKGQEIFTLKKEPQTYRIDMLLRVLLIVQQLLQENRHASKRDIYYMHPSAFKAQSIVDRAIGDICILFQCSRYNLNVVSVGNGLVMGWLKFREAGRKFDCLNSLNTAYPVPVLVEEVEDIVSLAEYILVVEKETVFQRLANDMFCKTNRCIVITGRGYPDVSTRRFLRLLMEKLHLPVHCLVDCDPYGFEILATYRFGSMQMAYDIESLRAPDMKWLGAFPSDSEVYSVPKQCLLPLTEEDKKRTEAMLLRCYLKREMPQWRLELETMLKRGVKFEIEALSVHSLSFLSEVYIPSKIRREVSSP
The description is as above.

The target in assay [3] is T3, AtDFO (Arabidopsis thaliana) (UniProt Q8RX33).
T3 sequence: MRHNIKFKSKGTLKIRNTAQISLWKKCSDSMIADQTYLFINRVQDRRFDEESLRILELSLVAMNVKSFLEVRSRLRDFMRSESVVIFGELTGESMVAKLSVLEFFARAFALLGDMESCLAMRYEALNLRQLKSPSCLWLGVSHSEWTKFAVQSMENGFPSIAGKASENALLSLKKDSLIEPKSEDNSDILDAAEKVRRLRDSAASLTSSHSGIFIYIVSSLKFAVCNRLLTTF
The description is as above.

For assay [4], the target named is T4, AtPRD3 (Arabidopsis thaliana) (UniProt Q0WWX5).
T4 sequence: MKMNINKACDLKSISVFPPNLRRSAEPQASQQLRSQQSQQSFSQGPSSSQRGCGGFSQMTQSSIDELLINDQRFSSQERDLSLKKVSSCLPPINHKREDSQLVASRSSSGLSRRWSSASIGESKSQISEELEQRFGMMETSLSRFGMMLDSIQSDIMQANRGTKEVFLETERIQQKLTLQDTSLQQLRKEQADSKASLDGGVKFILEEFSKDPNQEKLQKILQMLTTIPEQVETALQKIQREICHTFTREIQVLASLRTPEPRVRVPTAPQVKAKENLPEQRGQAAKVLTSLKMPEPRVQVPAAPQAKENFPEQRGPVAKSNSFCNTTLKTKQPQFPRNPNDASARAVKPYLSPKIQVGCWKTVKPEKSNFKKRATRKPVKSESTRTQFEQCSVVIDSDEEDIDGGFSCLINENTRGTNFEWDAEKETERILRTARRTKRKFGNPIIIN
The assay is described as above.

The target in assay [5] is T5, AtDFO (BiFC fusion) (Arabidopsis thaliana) (UniProt Q8RX33).
T5 sequence: T3 sequence
Put plainly: split reporter; BiFC, pSPYNE-35S and pSPYCE-35S, onion epidermal cells, gene gun; confocal microscopy 16–24 h after transformation.

For assay [6], the target named is T6, AtPRD3 (BiFC fusion) (Arabidopsis thaliana) (UniProt Q0WWX5).
T6 sequence: T4 sequence
Described as above.

In assay [7] the target is T7, AtSPO11-2 (BiFC fusion) (Arabidopsis thaliana) (UniProt Q9M4A1).
T7 sequence: T1 sequence
Described as above.

Assay [8] has as its target T8, AtSPO11-1 (BiFC fusion) (Arabidopsis thaliana) (UniProt Q9M4A2).
T8 sequence: T2 sequence
Described as above.

B1: AtPRD1-C (813–962 aa) (domain or fragment, UniProt O23277 813-962)
chain: ISEGDNYAATLLVNLLTQLAEKEEQENDVISILNLMNTIVSIFPTASNNLSMNGIGSVIHRLVSGFSNSSLGTSFRTLLLLVFNILTSVQPAVLMIDESWYAVSIKLLNFLSLRDTAIKQNHEDMVVIGILSLVLYHSSDGALVEASRNI
Regarding B1, the binding result in assay [1], in assay [2], in assay [3] and in assay [4] was “no binding” in each case.

B2: AtPRD1-A (1–388 aa) (domain or fragment, UniProt O23277 1-388)
chain: MFFQHSQLQNSDHLLHESMADSNHQSLSPPCANGHRSTISLRDDQGGTFCLICFSNLVSDPRIPTVHVSYALHQLSIAISEPIFLRTLLSSHIHFLVSPLVHALSSIDDAPIAIQIMDMISLLCSVEESSIGEDFVERISDQLSSGALGWSRRQLHMLHCFGVLMSCENININSHIRDKEALVCQLVEGLQLPSEEIRGEILFALYKFSALQFTEQNVDGIEVLSLLCPKLLCLSLEALAKTQRDDVRLNCVALLTILAQQGLLANSHSNSASSMSLDEVDDDPMQTAENVAARPCLNVLFAEAIKGPLLSTDSEVQIKTLDLIFHYISQESTPSKQIQVMVEENVADYIFEILRLSECKDQVVNSCLRVLDLFSLAEHSFRKRLVIG
Turning to B2, the binding result in assay [1], in assay [2], in assay [3] and in assay [4] was “binds” each time.

B3: AtPRD1 (BiFC fusion) (protein, UniProt O23277 1-1330)
chain: MFFQHSQLQNSDHLLHESMADSNHQSLSPPCANGHRSTISLRDDQGGTFCLICFSNLVSDPRIPTVHVSYALHQLSIAISEPIFLRTLLSSHIHFLVSPLVHALSSIDDAPIAIQIMDMISLLCSVEESSIGEDFVERISDQLSSGALGWSRRQLHMLHCFGVLMSCENININSHIRDKEALVCQLVEGLQLPSEEIRGEILFALYKFSALQFTEQNVDGIEVLSLLCPKLLCLSLEALAKTQRDDVRLNCVALLTILAQQGLLANSHSNSASSMSLDEVDDDPMQTAENVAARPCLNVLFAEAIKGPLLSTDSEVQIKTLDLIFHYISQESTPSKQIQVMVEENVADYIFEILRLSECKDQVVNSCLRVLDLFSLAEHSFRKRLVIGFPSVIRVLHYVGEVPCHPFQIQTLKLISSCISDFPGIASSSQVQEIALVLKKMLERYYSQEMGLFPDAFAIICSVFVSLMKTPSFGETADVLTSLQESLRHSILASLSLPEKDSTQILHAVYLLNEVYVYCTASTSINKTICIELRHCVIDVCTSHLLPWFLSDVNEVNEEATLGIMETFHSILLQNSDIQAKEFAELLVSADWFSFSFGCLGNFCTDNMKQRIYLMLSSLVDILLEQKTGSHIRDALHCLPSDPQDLLFLLGQASSNNQELASCQSAALLIFHTSSIYNDRLADDKLVLASLEQYIILNKTSLICAISDSPALLNLVNLYGLCRSLQNERYQISYSLEAERIIFHLLNEYEWDLGSINIHLESLKWLFQQESISKSLIYQIQKISRNNLIGNEVHNVYGDGRQRSLTYWFAKLISEGDNYAATLLVNLLTQLAEKEEQENDVISILNLMNTIVSIFPTASNNLSMNGIGSVIHRLVSGFSNSSLGTSFRTLLLLVFNILTSVQPAVLMIDESWYAVSIKLLNFLSLRDTAIKQNHEDMVVIGILSLVLYHSSDGALVEASRNIVSNSYLVSAINTVVDVACSKGPALTQCQDETNIGEALAFTLLLYFFSLRSLQIVLAGAVDWQTFFGTSTSLETLPVVCIHCHNLCRLMHFGAPQIKLIASYCLLELLTGLSEQVDIKKEQLQCSSSYLKSMKAVLGGLVFCDDIRVATNSALCLSMILGWEDMEGRTEMLKTSSWYRFIAEEMSVSLAMPCSASSTYVNHHKPAVYLTVAMLRLKNKPVWLRTVFDESCISSMIQNLNGINISREIVILFRELMQAELLNSQQVTKLDRAFQECRKQMHRNGTRDETVEEQVQRKIPSIHDHSEFCNYLVHLMVSNSFGHPSESETYTQKKKQILDEMEQFSELISTREGRVSPIQEETRQMQTERIV
With B3, the binding result in assay [5], in assay [6], in assay [7] and in assay [8] was “binds” each time.

B4: AtPRD3 (protein, UniProt Q0WWX5 1-449)
chain: T4 sequence
As to B4, the binding result in assay [4] is recorded as “binds”.

B5: AtPRD1-E (1110–1330 aa) (domain or fragment, UniProt O23277 1110-1330)
chain: TNSALCLSMILGWEDMEGRTEMLKTSSWYRFIAEEMSVSLAMPCSASSTYVNHHKPAVYLTVAMLRLKNKPVWLRTVFDESCISSMIQNLNGINISREIVILFRELMQAELLNSQQVTKLDRAFQECRKQMHRNGTRDETVEEQVQRKIPSIHDHSEFCNYLVHLMVSNSFGHPSESETYTQKKKQILDEMEQFSELISTREGRVSPIQEETRQMQTERIV
Regarding B5, the binding entry in assay [1], in assay [2], in assay [3] and in assay [4] was “no binding” each time.

B6: AtPRD1-B (389–812 aa) (domain or fragment, UniProt O23277 389-812)
chain: FPSVIRVLHYVGEVPCHPFQIQTLKLISSCISDFPGIASSSQVQEIALVLKKMLERYYSQEMGLFPDAFAIICSVFVSLMKTPSFGETADVLTSLQESLRHSILASLSLPEKDSTQILHAVYLLNEVYVYCTASTSINKTICIELRHCVIDVCTSHLLPWFLSDVNEVNEEATLGIMETFHSILLQNSDIQAKEFAELLVSADWFSFSFGCLGNFCTDNMKQRIYLMLSSLVDILLEQKTGSHIRDALHCLPSDPQDLLFLLGQASSNNQELASCQSAALLIFHTSSIYNDRLADDKLVLASLEQYIILNKTSLICAISDSPALLNLVNLYGLCRSLQNERYQISYSLEAERIIFHLLNEYEWDLGSINIHLESLKWLFQQESISKSLIYQIQKISRNNLIGNEVHNVYGDGRQRSLTYWFAKL
For the molecule B6, the binding entry in assay [1], in assay [2], in assay [3] and in assay [4] was “no binding” in each case.

B7: AtPRD1-D (963–1109 aa) (domain or fragment, UniProt O23277 963-1109)
chain: VSNSYLVSAINTVVDVACSKGPALTQCQDETNIGEALAFTLLLYFFSLRSLQIVLAGAVDWQTFFGTSTSLETLPVVCIHCHNLCRLMHFGAPQIKLIASYCLLELLTGLSEQVDIKKEQLQCSSSYLKSMKAVLGGLVFCDDIRVA
Take B7: the binding result in assay [3] and in assay [4] was “binds weakly” each time.

Values taken from publication PMC5577129.
